Experimental findings from publication PMC4336329 (PLoS ONE, 2015) are described below.

SMILES strings stand for the structures. The whole screen tested about 310,000 compounds, of which about 14,000 (4.5%) showed an effect of 50% or more. The effect is printed as a negative number. Some of the results follow.
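Further: peak tail current of the secondary pulse compared with the same well before compound.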

The target in the test is human ether-à-go-go-related gene (hERG) potassium channel (human, UniProt Q12809). The test is described as follows: primary screen, population patch clamp on CHO cells stably expressing hERG.
human ether-à-go-go-related gene (hERG) potassium channel, sequence (Q12809 whole entry, looked up): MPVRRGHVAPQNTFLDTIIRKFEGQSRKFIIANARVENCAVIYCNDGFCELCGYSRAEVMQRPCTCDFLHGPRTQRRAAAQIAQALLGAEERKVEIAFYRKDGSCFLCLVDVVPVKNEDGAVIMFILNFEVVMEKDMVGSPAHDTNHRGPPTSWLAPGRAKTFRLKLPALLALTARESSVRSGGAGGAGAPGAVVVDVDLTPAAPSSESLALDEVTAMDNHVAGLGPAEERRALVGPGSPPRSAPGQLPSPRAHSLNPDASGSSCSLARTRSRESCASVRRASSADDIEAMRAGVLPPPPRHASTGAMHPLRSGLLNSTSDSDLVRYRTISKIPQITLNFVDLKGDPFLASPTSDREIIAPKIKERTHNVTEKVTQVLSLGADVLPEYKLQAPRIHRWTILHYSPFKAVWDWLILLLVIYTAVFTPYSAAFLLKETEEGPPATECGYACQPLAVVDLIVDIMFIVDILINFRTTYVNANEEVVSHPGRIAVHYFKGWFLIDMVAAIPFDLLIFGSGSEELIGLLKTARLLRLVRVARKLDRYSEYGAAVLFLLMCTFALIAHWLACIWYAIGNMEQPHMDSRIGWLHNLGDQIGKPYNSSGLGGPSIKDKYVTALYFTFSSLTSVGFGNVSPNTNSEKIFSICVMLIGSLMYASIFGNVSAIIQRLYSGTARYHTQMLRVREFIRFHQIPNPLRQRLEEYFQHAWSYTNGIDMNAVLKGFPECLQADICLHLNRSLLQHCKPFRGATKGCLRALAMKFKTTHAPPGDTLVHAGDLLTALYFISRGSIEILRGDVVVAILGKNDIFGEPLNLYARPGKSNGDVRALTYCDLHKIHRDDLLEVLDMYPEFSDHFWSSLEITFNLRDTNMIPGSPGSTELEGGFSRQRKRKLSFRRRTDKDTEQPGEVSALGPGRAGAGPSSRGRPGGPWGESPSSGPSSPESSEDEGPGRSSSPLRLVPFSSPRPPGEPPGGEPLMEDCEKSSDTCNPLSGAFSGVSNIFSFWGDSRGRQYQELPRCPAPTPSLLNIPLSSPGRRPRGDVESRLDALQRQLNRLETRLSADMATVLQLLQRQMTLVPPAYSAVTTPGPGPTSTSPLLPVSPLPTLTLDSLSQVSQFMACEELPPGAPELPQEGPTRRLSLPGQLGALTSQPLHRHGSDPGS
Turning to `O=C(OCc1ccccc1)/C(=C/c1cccc([N+](=O)[O-])c1)NC(=O)c1ccco1`, the “hERG current change (%, negative = inhibition) at 10uM” value is reported as -63.3%.

For `COc1ccc(CCNC(=O)C2CCN(C(=O)c3ccc(F)cc3)CC2)cc1OC`, the “hERG current change (%, negative = inhibition) at 10uM” value was determined as 13.1%.

As to `CC(C)CNC(=O)NC(=O)COC(=O)c1cc([N+](=O)[O-])ccc1NCc1ccccc1Cl`, the “hERG current change (%, negative = inhibition) at 10uM” value worked out at 10.1%.

For the molecule `COc1cc(/C=N/O)c(Br)cc1OCC(=O)Nc1ccccc1C`, the “hERG current change (%, negative = inhibition) at 10uM” value is 11.1%.

For the molecule `COc1ccc(N(C(=O)c2snc(C(N)=O)c2N)C(C(=O)NC2CCCCC2)c2ccc(C)o2)cc1` (stereo not shown), the “hERG current change (%, negative = inhibition) at 10uM” value amounted to 5.37%.

Turning to `Nc1nnc(SCC(=O)NC2CCCCCCC2)s1`, the “hERG current change (%, negative = inhibition) at 10uM” value is listed as 16.9%.

Consider `CC(OC(=O)c1ccc2c(c1)C(=O)N(Cc1ccncc1)C2=O)C(=O)Nc1cccc(Cl)c1Cl` (stereo not shown), for which the “hERG current change (%, negative = inhibition) at 10uM” value is -11.1%.

Consider `CCOc1ccccc1OCC(=O)Nc1cccc(S(=O)(=O)NC2=NCCCCC2)c1`, for which the “hERG current change (%, negative = inhibition) at 10uM” value is reported as -30.7%.

For the molecule `CN1CCN(C(=O)c2cc3ccccc3[nH]2)CC1`, the “hERG current change (%, negative = inhibition) at 10uM” value is recorded as -3.26%.

Take `COc1ccc(/C=N/N(C)c2cc(=O)n(C)c(=O)[nH]2)cc1OC`: the “hERG current change (%, negative = inhibition) at 10uM” value came to 1.39%.

With `Cc1nn(-c2ccccc2)c2c1C(c1ccncc1)C(C#N)=C(N)O2` (stereo not shown), the “hERG current change (%, negative = inhibition) at 10uM” value was determined as 0.763%.

For the molecule `Cc1ccc(-c2nnn(CC(=O)NCCC3=CCCCC3)n2)cc1`, the “hERG current change (%, negative = inhibition) at 10uM” value amounted to 17.8%.

Turning to `CCc1cc(C(=O)Nc2cc(S(=O)(=O)N(CC)CC)ccc2N2CCOCC2)sc1C`, the “hERG current change (%, negative = inhibition) at 10uM” value is reported as 4.41%.

`Cc1nc2ccccc2c(=O)n1/N=C/c1ccc(C(C)C)cc1`: the “hERG current change (%, negative = inhibition) at 10uM” value is 0.213%.

`O=C1CCc2nc3ccccc3c(=O)n2N1`: the “hERG current change (%, negative = inhibition) at 10uM” value is on record as 6.03%.

Regarding `O=C(NCc1ccco1)c1ccc(N2CCCC2=O)cc1`, the “hERG current change (%, negative = inhibition) at 10uM” value came out at 4.3%.

Turning to `CC(=O)OC(C(=O)N1CCN(c2ccc(F)cc2)CC1)c1ccccc1` (stereo not shown), the “hERG current change (%, negative = inhibition) at 10uM” value is listed as -15.9%.

On to `Cc1ccc2cc(CN(CC3CCCO3)C(=O)C(C)C)c(=O)[nH]c2c1` (stereo not shown), for which the “hERG current change (%, negative = inhibition) at 10uM” value is reported as -12.2%.

As for `CC/C(=N/NC(=O)c1ccc2c(c1)OCO2)c1ccccc1O`, the “hERG current change (%, negative = inhibition) at 10uM” value was -9.92%.

`Nc1ccccc1-n1cccc1`: the “hERG current change (%, negative = inhibition) at 10uM” value amounted to 10.5%.

With `COC1C(OC(=O)c2ccc(C)[nH]2)C(O)C(Oc2ccc3c(O)c(NC(=O)c4ccc(O)c(CC=C(C)C)c4)c(=O)oc3c2Cl)OC1(C)C` (stereo not shown), the “hERG current change (%, negative = inhibition) at 10uM” value is reported as 13.1%.

With `NC(=O)c1ccc(NC(=O)CSc2cn(CC(=O)N3CCOCC3)c3ccccc23)cc1`, the “hERG current change (%, negative = inhibition) at 10uM” value is 20.8%.

In the case of `Cc1ccc(S(=O)(=O)c2c(C(=O)c3ccccc3)cnc3cc4c(cc23)OCCO4)cc1`, the “hERG current change (%, negative = inhibition) at 10uM” value is reported as 13.7%.

Take `CC(C)CN=Cc1c(O)c([N+](=O)[O-])cc2oc3c(c12)CCCC3`: the “hERG current change (%, negative = inhibition) at 10uM” value came out at 0.113%.

In the case of `O=C(O)c1ccc(Cl)c(N2C(=O)Nc3ccccc3N2O)c1`, the “hERG current change (%, negative = inhibition) at 10uM” value was 22.9%.

Turning to `COC(=O)c1[nH]c2ccc(C)cc2c1NC(=O)C(C)N1CCN(C2CCCCC2)CC1` (stereo not shown), the “hERG current change (%, negative = inhibition) at 10uM” value is recorded as -77%.

Take `Cc1c(CCC(=O)N2CCC(C(=O)NCCCCCC(=O)O)CC2)c(=O)oc2cc3oc4c(c3cc12)CCCC4`: the “hERG current change (%, negative = inhibition) at 10uM” value came to 3.56%.

`C=CCOc1ccc(/C=N/NC(=O)C2CCCC2)cc1OCC`: the “hERG current change (%, negative = inhibition) at 10uM” value turned out to be 0.832%.

For `COc1cccc(C(=O)c2cc3cc(Cl)ccc3[nH]2)c1`, the “hERG current change (%, negative = inhibition) at 10uM” value was 21.2%.

Consider `Cc1ccc(NC(=O)N2CCC(NC(=O)c3cccc(F)c3)CC2)cc1`, for which the “hERG current change (%, negative = inhibition) at 10uM” value is recorded as -15.3%.

As to `COc1cccc(CNc2cnc3ccccc3c2)c1O`, the “hERG current change (%, negative = inhibition) at 10uM” value is reported as 5.72%.

In the case of `O=c1c2ccccc2n(Cc2ccccc2F)c(=O)n1Cc1ccccc1F`, the “hERG current change (%, negative = inhibition) at 10uM” value was determined as 5.76%.

Turning to `COC(=O)[C@H](CC(C)C)NS(=O)(=O)N[C@@H](CC(C)C)C(=O)OC`, the “hERG current change (%, negative = inhibition) at 10uM” value amounted to 16.9%.

Turning to `CSc1nc(=NC(C)=O)ss1`, the “hERG current change (%, negative = inhibition) at 10uM” value was 18.3%.

For the molecule `COc1ccc(CN2C(=O)c3cccnc3C2=O)cc1S(=O)(=O)N1CC(C)Oc2ccccc21` (stereo not shown), the “hERG current change (%, negative = inhibition) at 10uM” value was -28.1%.

With `Cc1cc(N2CCCC2)nc(-c2ccccc2O)n1`, the “hERG current change (%, negative = inhibition) at 10uM” value was -1.15%.

For `Cc1cc(C)c(C(=O)NCCCN2CCOCC2)c(C)c1`, the “hERG current change (%, negative = inhibition) at 10uM” value came out at 7.95%.

Turning to `CCOc1ccc(-n2c(SCC(=O)Nc3ccc4c(c3)OCO4)nc3ccccc3c2=O)cc1`, the “hERG current change (%, negative = inhibition) at 10uM” value turned out to be 11.1%.

Regarding `COc1ccccc1C(=O)NCC(=O)NNC(=O)C1COc2ccccc2O1` (stereo not shown), the “hERG current change (%, negative = inhibition) at 10uM” value is 2.49%.

`CCOC(=O)CCCCC(=O)c1[nH]c(=O)[nH]c1CSCCO`: the “hERG current change (%, negative = inhibition) at 10uM” value is given as 10.4%.

In the case of `O=C(NCC1CCCO1)c1cccc(NC(=O)c2ccccc2)c1` (stereo not shown), the “hERG current change (%, negative = inhibition) at 10uM” value was 8.62%.

On to `CCn1ncc2c1C(=O)NC1c3ccccc3C(=O)N21` (stereo not shown), for which the “hERG current change (%, negative = inhibition) at 10uM” value was determined as 3.28%.

Regarding `O=C(NCCCn1ccnc1)/C(=C\c1cccnc1)NC(=O)c1cccc(Br)c1`, the “hERG current change (%, negative = inhibition) at 10uM” value is recorded as -0.509%.
